At least one peptide structure holds a part that was inferred or is arguable (an end, a ring closure or a residue). Where a SMILES comes first, the peptide text is derived from it.
Tests used:
HTLV IIIB/H9 N.Y. = assay: Infectivity assay (p24 ELISA, syncytia formation, indirect immunofluorescence), HTLV-IIIB/H9 New York; assay type: cell-based, HIV; conditions: 4 mM; Table 8; listed as GPG-NH2 Syntello
[1] = test system: herpes simplex virus type I (HSV-1) strain McIntyre; assay: Yield inhibition assay of HSV-1 in GMK cells; assay type: cell-based; conditions: for YIELD OF HSV AFTER 24 HOURS: mean of two determinations
ELI1/HUT = assay: Infectivity assay (p24 ELISA, indirect immunofluorescence), ELI-1/HUT; assay type: cell-based, HIV
[2] = test system: Swiss albino outbred mice; assay: Humoral anti-TNP antibody response in pretreated mice (ELISA end-point titer); assay type: in vivo
HIV = assay type: cell-based
Experimental: Virus at 100 50% tissue culture infectious doses (TCID50) and peptides at concentrations of 250 and 25 µg/ml were added to the cells simultaneously and incubated for 2 hours at 4°C with frequent stirring. Subsequently, the temperature was increased to 37°C and the mixtures were subjected to a second incubation for 2 hours. […] Cells, at a concentration of 5 x 10^5/ml, were then added to 24 multidish well plates at a final volume of 1.5 ml of growth medium (RPMI supplemented with 10% fetal calf serum (FCS), antibiotics and polybrene (2 µg/ml)), with the addition of peptides at dilutions of 250 or 25 µg/ml. […] As additional controls, two HIV infected cell cultures (designated pos. controls 1 and 2, Tables 3-5) and two uninfected cell cultures (designated neg. controls 1 and 2) were used.
Infected cells were continuously monitored for formation of syncytia and the growth medium supernatants were analyzed at days 9-12 p.i. for p24 antigen which is an indicator of HIV replication.
Briefly, the following protocol was used for detection of the p24 antigen. HIV p24 antigen was determined using a rabbit anti-p24 polyclonal antiserum as capture antibody and a biotinylated rabbit anti-p24 polyclonal antibody was used as detecting antibody in an avidin-horse radish peroxidase (HRP) ELISA. The sensitivity of the assay allowed detection of approximately 50 pg of p24 antigen per ml supernatant. […] Serial dilutions of the supernatants were made so as to detect p24 concentration in the most accurate range (< 2.0 absorbance units).
The number of infected cells were then determined by indirect immunofluorescence using a human HIV positive serum diluted 1/100 and FITC conjugated antihuman IgG (Bio Merieux, France) diluted 1/200.

normal T cells = assay: In vitro proliferative response of T cells to mitogens (stimulation index, thymidine incorporation); assay type: cell-based, human; conditions: for STIMULATION INDEX (SI) Accessory-cell dependent system PHA / STIMULATION INDEX (SI) Accessory-cell independent system Insoluble anti-CD3 / STIMULATION INDEX (SI) Accessory-cell independent system Soluble anti-CD3: GPG 20 µM
[3] = Ficoll-TNP, mice pretreated with 0.05 mg GPG
[4] = Ficoll-TNP, mice pretreated with 5 mg GPG
[5] = LPS-TNP, mice pretreated with 0.05 mg GPG
[6] = LPS-TNP, mice pretreated with 5 mg GPG
[7] = OVA-TNP, mice pretreated with 0.05 mg GPG
[8] = OVA-TNP, mice pretreated with 5 mg GPG

SMILES: NCC(=O)N1CCC[C@H]1C(=O)NCC(N)=O [GPG, Gly-Pro-Gly-NH2] (H-Gly-Pro-Gly-NH2)
- p24 1/10 (HTLV IIIB/H9 N.Y.): 0.075 absorbance (454 nm)
- p24 1/100 (HTLV IIIB/H9 N.Y.): 0.076 absorbance (454 nm)
- p24 1/1000 (HTLV IIIB/H9 N.Y.): 0.083 absorbance (454 nm)
- YIELD OF HSV AFTER 24 HOURS PERCENT OF CONTROL ([1]; 25 µg/ml): 97
- YIELD OF HSV AFTER 24 HOURS ([1]; 25 µg/ml): 30 millions of pfu/ml
- YIELD OF HSV AFTER 24 HOURS PERCENT OF CONTROL ([1]; 250 µg/ml): 94
- YIELD OF HSV AFTER 24 HOURS ([1]; 250 µg/ml): 29 millions of pfu/ml
- PERCENTAGE OF POS CELLS (ELI1/HUT; 25 µg/ml): 5-10
- p24 1/10 (ELI1/HUT; 25 µg/ml): 2.708 absorbance (454 nm)
- p24 1/100 (ELI1/HUT; 25 µg/ml): 1.294 absorbance (454 nm)
- p24 1/1,000 (ELI1/HUT; 25 µg/ml): 0.37 absorbance (454 nm)
- p24 1/10,000 (ELI1/HUT; 25 µg/ml): 0.216 absorbance (454 nm)
- PERCENTAGE OF POS CELLS (ELI1/HUT; 250 µg/ml): 0.1
- p24 1/10 (ELI1/HUT; 250 µg/ml): 0.378 absorbance (454 nm)
- p24 1/100 (ELI1/HUT; 250 µg/ml): 0.202 absorbance (454 nm)
- p24 1/1,000 (ELI1/HUT; 250 µg/ml): 0.2 absorbance (454 nm)
- p24 1/10,000 (ELI1/HUT; 250 µg/ml): 0.183 absorbance (454 nm)
- influence on humoral immune responsiveness of mice ([2]; 5 mg/day/animal for 5 days, T cell dependent and independent antigens): do not appreciably influence
- Anti-TNP antibody IgG1 titers (10^-2) [2, 3]: <1 10^-2
- Anti-TNP antibody IgG2a titers (10^-2) [2, 3]: <1 10^-2
- Anti-TNP antibody IgG2b titers (10^-2) [2, 3]: <1 10^-2
- Anti-TNP antibody IgG3 titers (10^-2) [2, 3]: <1 10^-2
- Anti-TNP antibody IgM titers (10^-2) [2, 3]: 2 (1-3) 10^-2
- Anti-TNP antibody IgG1 titers (10^-2) [2, 4]: 3 (1-4) 10^-2
- Anti-TNP antibody IgG2a titers (10^-2) [2, 4]: 2 (1-2) 10^-2
- Anti-TNP antibody IgG2b titers (10^-2) [2, 4]: 1 (1-2) 10^-2
- Anti-TNP antibody IgG3 titers (10^-2) [2, 4]: <1 10^-2
- Anti-TNP antibody IgM titers (10^-2) [2, 4]: 2 (1-4) 10^-2
- Anti-TNP antibody IgG1 titers (10^-2) [2, 5]: 240 (5-500) 10^-2
- Anti-TNP antibody IgG2a titers (10^-2) [2, 5]: 350 (100-600) 10^-2
- Anti-TNP antibody IgG2b titers (10^-2) [2, 5]: 180 (30-400) 10^-2
- Anti-TNP antibody IgG3 titers (10^-2) [2, 5]: 48 (1-150) 10^-2
- Anti-TNP antibody IgM titers (10^-2) [2, 5]: 32 (5-100) 10^-2
- Anti-TNP antibody IgG1 titers (10^-2) [2, 6]: 170 (50-400) 10^-2
- Anti-TNP antibody IgG2a titers (10^-2) [2, 6]: 440 (150-750) 10^-2
- Anti-TNP antibody IgG2b titers (10^-2) [2, 6]: 260 (100-500) 10^-2
- Anti-TNP antibody IgG3 titers (10^-2) [2, 6]: 38 (5-130) 10^-2
- Anti-TNP antibody IgM titers (10^-2) [2, 6]: 18 (10-30) 10^-2
- Anti-TNP antibody IgG1 titers (10^-2) [2, 7]: 4500 (2500-5000) 10^-2
- Anti-TNP antibody IgG2a titers (10^-2) [2, 7]: 800 (250-1500) 10^-2
- Anti-TNP antibody IgG2b titers (10^-2) [2, 7]: 1110 (250-1500) 10^-2
- Anti-TNP antibody IgG3 titers (10^-2) [2, 7]: 180 (75-410) 10^-2
- Anti-TNP antibody IgM titers (10^-2) [2, 7]: 21 (10-40) 10^-2
- Anti-TNP antibody IgG1 titers (10^-2) [2, 8]: 2770 (200-4000) 10^-2
- Anti-TNP antibody IgG2a titers (10^-2) [2, 8]: 775 (75-2000) 10^-2
- Anti-TNP antibody IgG2b titers (10^-2) [2, 8]: 1000 (40-2000) 10^-2
- Anti-TNP antibody IgG3 titers (10^-2) [2, 8]: 140 (6-400) 10^-2
- Anti-TNP antibody IgM titers (10^-2) [2, 8]: 29 (15-50) 10^-2
- effectiveness in preventing p24 production and syncytia formation compared with AZT 20 µM (HIV; 25 µg/ml (approximately 100 µM)): only slightly less effective
- infection of treated cells by p24 synthesis and syncytia formation (HIV; Tables 3-5): showed a reduced amount of infection
- prevention of HIV infection by p24 levels and syncytia formation (words) (HIV; Tables 3 to 6, listed as Gly-Pro-Gly-NH2): prevent HIV infection
- STIMULATION INDEX (SI) Accessory-cell dependent system PHA (normal T cells; CD2+ T-cells + accessory cells): 22.8
- STIMULATION INDEX (SI) Accessory-cell independent system Insoluble anti-CD3 (normal T cells; CD2+ T-cells - accessory cells): 373.4
- STIMULATION INDEX (SI) Accessory-cell independent system Soluble anti-CD3 (normal T cells; CD2+ T-cells - accessory cells): 0.4
- STIMULATION INDEX (SI) Accessory-cell independent system Insoluble anti-CD3 (normal T cells; CD4+ T-cells - accessory cells): 490.0
- STIMULATION INDEX (SI) Accessory-cell independent system Soluble anti-CD3 (normal T cells; CD4+ T-cells - accessory cells): 1.2
- STIMULATION INDEX (SI) Accessory-cell independent system Insoluble anti-CD3 (normal T cells; CD8+ T-cells - accessory cells): 270.3
- STIMULATION INDEX (SI) Accessory-cell independent system Soluble anti-CD3 (normal T cells; CD8+ T-cells - accessory cells): 1.7
- STIMULATION INDEX (SI) Accessory-cell dependent system PHA (normal T cells; PBL unfractioned): 35.2
- STIMULATION INDEX (SI) Accessory-cell independent system Insoluble anti-CD3 (normal T cells; PBL unfractioned): 81.5
- STIMULATION INDEX (SI) Accessory-cell independent system Soluble anti-CD3 (normal T cells; PBL unfractioned): 3.4
- anti-proliferative properties on T cells (normal T cells; doses as high as 20 µM): marginal if any direct anti-proliferative properties
